# Measurements: PubChem BioAssay AID651820 (National Center for Advancing Translational Sciences (NCATS), 2012)
# Values joined by “and” are separate entries in the source; they are usually repeats but may differ in a detail not shown here. Equal entries are not always repeated. The campaign covered roughly 340,000 compounds. About 12,000 (3.5%) were called active. Inconclusive means that the source gave no clear call. Such entries were picked first, then a sample of the others. Calls follow the shape of the dose curve; as a rule, active = well fitted inhibition curve with a large enough effect; inconclusive = small, poorly fitted or top-dose-only effect, or another doubt; inactive = no such curve, though single readings can be large or run the other way. Where the call is inconclusive, the potency comes from a doubtful curve fit.
# Assay: qHTS Assay for Inhibitors of Hepatitis C Virus (HCV)
# Settings: Huh7.5.1 HCVcc-Cre (HCVcc is cell-culture hepatitis C virus) infection, luciferase reporter, 44 h; activity change, negative = inhibition: at 41.8 µM (top of the series)
# Method in brief: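 HCVcc-Cre virus at an moi near 0.5 was added right after compound to cells cultured 4 h from seeding (1,000 cells/well). Luciferase activity was determined 44 h later, 15 min after substrate addition at RT.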
# % is scaled to controls: 0 for no effect and ±100 for the full control effect; potency is read from the fitted curve at half-maximal effect; tags tell the direction and shape of the fitted curve.
Compound,Potency,"activity change, negative = inhibition"
COC(=O)c1ccccc1NC1=C/C(=N\S(=O)(=O)c2cccs2)c2ccccc2C1=O,active: 8.91 µM,
CC(=O)Nc1ccc(NC(=O)c2cc([N+](=O)[O-])cc([N+](=O)[O-])c2)cc1,,inactive: -0.772%
CC(C)[C@H](NC(=O)C1CCN(C(=O)[C@@H]2CCCN2)CC1)C(=O)NCc1ccc(F)cc1,"inconclusive: 31.6 µM [inhibitor, single point]",
COc1ccccc1/C=C1\SC(=O)N(CCC(=O)NNC(=O)c2ccccc2Cl)C1=O,"inconclusive: 2.82 µM [inhibitor, partial curve]",
CC(C)NC(=O)c1ccc(CSCc2ccccc2Cl)o1,"inconclusive: 31.6 µM [inhibitor, single point]",
C[C@@H]1CN([C@@H](C)CO)C(=O)Cc2cc(NC(=O)Nc3ccc(C(F)(F)F)cc3)ccc2O[C@@H]1CN(C)S(=O)(=O)c1ccc(Cl)cc1,"inconclusive: 31.6 µM [inhibitor, single point]",
CC(=O)c1cccc(OCc2cc(C(=O)N3CC4C[C@@H]5CC3C[C@H](C4)C5)no2)c1,"inconclusive: 31.6 µM [inhibitor, single point]",
Nc1ncnc2c1ncn2[C@@H]1O[C@H](CNCc2ccc(OCc3ccccc3)cc2)[C@@H](O)[C@H]1O,active: 3.98 µM,
O=S(=O)(Nc1ccc(N2CCCCC2)cc1)c1ccc(F)cc1F,"inconclusive: 10 µM [inhibitor, partial curve]",
O=C1C=CC(=O)N1CCCCCCCCCCN1C(=O)C=CC1=O,"inconclusive: 11.2 µM [inhibitor, single point]",
CCC1CCCCN1CCCNC(=O)c1cn(CC)c2ccc(S(=O)(=O)N3CCc4ccccc4C3)cc2c1=O (stereo unspecified),active: 12.6 µM,
Cc1ccc2nc(N3CCC(C(=O)NC4CCCCC4)CC3)sc2c1,"inconclusive: 8.91 µM [inhibitor, partial curve]",
Cc1ccc(S(=O)(=O)Cc2ccc([N+](=O)[O-])cc2)cc1,,inactive: 11.6%
CCOC(=O)c1cc2c(=O)n3cccc(C)c3nc2n(Cc2ccco2)c1=NC(=O)c1ccccc1,"inconclusive: 10 µM [inhibitor, partial curve] and inconclusive: 8.91 µM [inhibitor, partial curve]",
O=C(CCN1C(=O)C2CC=C(Cl)CC2C1=O)NCc1ccccc1 (stereo unspecified),,inactive: 3.27%
O=C(O)c1ccc(CN2C(=O)c3ccc(C(=O)O)cc3C2=O)cc1,,inactive: 16.3%
NC(=O)CC(NC(=O)c1ccc(Br)cc1)c1ccc(N2CCN(c3ccccc3)CC2)c([N+](=O)[O-])c1 (stereo unspecified),"inconclusive: 10 µM [inhibitor, partial curve]",
Cc1ccc(S(=O)(=O)N2CCOCC2)cc1C(=O)OCC(=O)c1ccc[nH]1,active: 11.2 µM,
Cc1ccc(-n2ncc3c2ncn2nc(-c4ccco4)nc32)c(C)c1,,inactive: -1.19%
COc1ccc(Oc2ccc(NC(=O)c3ccccc3C)cc2)cc1,"inconclusive: 11.2 µM [inhibitor, single point]",
CCc1nnc(NC(=O)c2c(C)nn(-c3ccccc3)c2Cl)s1,,inactive: 9.16%
O=C(NCc1ccco1)Nc1ccc2nsnc2c1,"inconclusive: 10 µM [inhibitor, partial curve]",
COc1ccc(OC)c(NC(=O)COc2ccc(S(=O)(=O)NC(C)C)cc2)c1,"inconclusive: 1.58 µM [inhibitor, full curve]",
COc1cc2c(cc1OC)/C(=C/C(=O)c1ccc([N+](=O)[O-])c(C)c1)NCC2,"inconclusive: 3.16 µM [inhibitor, partial curve]",

Compound,Potency,"activity change, negative = inhibition"
O=C(COc1ccc(Cl)cc1Br)Nc1cccc(S(=O)(=O)N2CCCC2)c1,"inconclusive: 3.98 µM [inhibitor, full curve]",
Cc1ccc(C)c(NC(=S)Nc2ncccc2C)c1,"inconclusive: 0.501 µM [inhibitor, full curve, poor fit]",
COc1ccc(S(=O)(=O)n2ccc(C)n2)cc1C,,inactive: -0.724%
CCOC(=O)c1cccc(NC(=O)c2c(NCc3ccccc3)[nH]c(=O)[nH]c2=O)c1,"inconclusive: 31.6 µM [inhibitor, single point]",
COc1cccc(C(=O)Nc2ccc(C)cc2)c1,"inconclusive: 35.5 µM [inhibitor, partial curve]",
COc1cccc(CN(C)CC(=O)Nc2cc3oc4ccccc4c3cc2OC)c1,active: 15.8 µM,
CC1CCN(CCCCOc2ccc(Cl)cc2)CC1,"inconclusive: 22.4 µM [inhibitor, single point]",
Cc1[nH]nc(SCC(=O)NC(C)c2ccccc2)c1[N+](=O)[O-] (stereo unspecified),"inconclusive: 1.26 µM [inhibitor, partial curve]",
CCOC(=O)N1CCN(c2ncnc3c2[nH]c2ccc(F)cc23)CC1,active: 8.91 µM,
Cc1c(C(=O)N(Cc2cccc(Br)c2)C2CCS(=O)(=O)C2)oc2ccc(F)cc12 (stereo unspecified),"inconclusive: 31.6 µM [inhibitor, single point]",
CCCCN(CC(=O)NC1CCCC1)C(=O)C(=O)Nc1ccc2c(c1)OCCO2,"inconclusive: 3.16 µM [inhibitor, single point]",
S=C(c1ccc(-c2ccc(Cl)c(Cl)c2)o1)N1CCOCC1,"inconclusive: 2.51 µM [inhibitor, full curve]",
CCN1/C(=C\C=C2\C(=O)N(c3ccccc3)C(=S)N2C)Sc2ccccc21,,inactive: -15.8%
O=C(Cc1ccccc1)Nc1cccc(S(=O)(=O)N2CCCCCC2)c1,"inconclusive: 11.2 µM [inhibitor, single point]",
Fc1ccc(-c2nnc(Cc3ccc(Cl)cc3)o2)cc1,,inactive: -22.6%
O=C(Cc1ccccc1)Nc1ccc2oc(-c3cccnc3)nc2c1,"inconclusive: 17.8 µM [inhibitor, single point]",
COc1ccccc1CC(=O)N1CCN(c2ccc([N+](=O)[O-])cc2)CC1,active: 6.31 µM,
Cc1nc2ncnn2c(Nc2ccc3c(c2)OCCO3)c1C,"inconclusive: 25.1 µM [inhibitor, single point]",
COC(=O)C(C)Sc1nc(NCc2ccccc2)nc(N(C)C)n1 (stereo unspecified),active: 3.16 µM,
CCn1c(NN=O)nc2ccccc21,active: 6.31 µM,
CC(C)Cn1nc(C(=O)Nc2cccc(C(=O)NC3CC3)c2)c2ccccc2c1=O,"inconclusive: 11.2 µM [inhibitor, partial curve, poor fit]",
CCNC(=O)COC(=O)c1ccc(-c2nc3ccccc3s2)s1,,inactive: 9.66%
CCOC(=O)c1cc(C#N)c(Oc2ccccc2)nc1-c1ccccc1,"inconclusive: 6.31 µM [inhibitor, full curve]",
CCS(=O)(=O)N1Cc2ccccc2CC1C(=O)Nc1ccc(C)cc1 (stereo unspecified),,inactive: 0.384%

Compound,Potency,"activity change, negative = inhibition"
CC(C)C[C@@H](NC(=O)C1CCC(CNC(=O)[C@@H]2CCCN2C(=O)OC(C)(C)C)CC1)C(=O)O (stereo partly specified),,inactive: 21.7%
Oc1c(C(Nc2nccs2)c2ccc(C(F)(F)F)cc2)ccc2cccnc12 (stereo unspecified),"inconclusive: 4.47 µM [inhibitor, full curve, poor fit]",
COc1ccc(NC(=O)/C=C/c2ccc(OC(F)F)cc2)cn1,active: 11.2 µM,
COc1ccc(N2CCN(C(=O)C3CCCN(S(=O)(=O)c4ccc(F)cc4)C3)CC2)cc1 (stereo unspecified),"inconclusive: 31.6 µM [inhibitor, single point]",
O=C(NCCc1ccc2c(c1)OCCO2)c1cc(S(=O)(=O)N2CCCC2)ccc1Cl,"inconclusive: 31.6 µM [inhibitor, single point]",
CCC(=O)Nc1cc(-c2nn(C)c(=O)c3ccccc23)ccc1N1CCCCC1,,inactive: 3.79%
CCn1c(C)cc(/C=C2\NC(=O)N(CC(=O)Nc3ccc(F)cc3)C2=O)c1C,"inconclusive: 31.6 µM [inhibitor, single point]",
CC1=CC(=C(C#N)c2nc3ccccc3s2)C=C(C)N1Cc1ccco1,"inconclusive: 4.47 µM [inhibitor, full curve]",
Cc1cnc(C(=O)Nc2ccc(F)c(F)c2)cn1,,inactive: -5.21%
Oc1ccc(-c2nnc(Nc3ccccc3)c3ccccc23)cc1,,inactive: 4.1%
COC(=O)CCn1c(C)cc(C(=O)COc2ccccc2C(N)=O)c1C,"inconclusive: 31.6 µM [inhibitor, single point]",
COCc1cc(=O)[nH]c(N2CCN(Cc3ccc4c(c3)OCO4)CC2)n1,,inactive: 9.06%
c1ccc(CSc2ncn(-c3ccccc3)n2)cc1,,inactive: 0.901%
O=C(N[C@@H](Cc1c[nH]c2ccccc12)C(=O)O)C1CCN(S(=O)(=O)c2cccs2)CC1,,inactive: 5.71%
Cc1cccc2c1CC(C)(C)NC2=C(C#N)C#N,"inconclusive: 10 µM [inhibitor, partial curve]",
CC1CC(=O)NC(=O)N1Cc1ccccc1 (stereo unspecified),,inactive: 10.3%
c1ccc(-c2nn3c(Cn4nnc5ccccc54)nnc3s2)nc1,,inactive: -31%
N/C(=N\NC(=O)c1sccc1OCc1ccc(Cl)cc1Cl)c1ccccn1,"inconclusive: 3.98 µM [inhibitor, full curve]",
COc1ccc(NC2CCCN(C(=O)c3cccc(C)n3)C2)cc1OC (stereo unspecified),"inconclusive: 31.6 µM [inhibitor, single point]",
CC(C)C(NC(=O)c1ccccc1)C(=O)OCc1cc([N+](=O)[O-])cc2c1OCOC2 (stereo unspecified),"inconclusive: 12.6 µM [inhibitor, partial curve]",
Cc1ccc(NC(=O)CN2CCN(Cc3ccccc3)CC2)c(Br)c1,"inconclusive: 31.6 µM [inhibitor, single point]",
O=c1c2c3c(sc2nc2n1CCCCC2)C(O)CCC3 (stereo unspecified),,inactive: 1.13%
CCOC(=O)[C@@H]1[C@H]2COc3ccccc3[C@@H]2N2C(=O)N(c3cccc(C)c3)C(=O)[C@]12C,,inactive: -10.7%
